In ChEMBL document CHEMBL4888484, “Replenishing the malaria drug discovery pipeline: Screening and hit evaluation of the MMV Hit Generation Library 1 (HGL1) against asexual blood stage Plasmodium falciparum ,using a nano luciferase reporter read-out” (2022):
The whole screen tested about 150,000 compounds, of which about 540 (0.36%) showed an effect of 50% or more. The list shows a part of the results.

System: Plasmodium falciparum
Assay: Primary screen in NF54 nanoGlo assay, in single point, at 2uM, 72h; a lower Z score goes with more inhibition
Type: functional, Erythrocyte
Details: timepoint 72 hour

SMILES	% Inhibition	Z score
O=C(NCc1noc2ccc(F)cc12)[C@H]1NCC12CCCC2	-6%	1.12
Cc1c(C(=O)[C@H](C#N)C(=O)NC(C)C)cnn1CC1CCOCC1	-5%	0.54
CC1c2ccccc2OC1C(=O)NCc1ccc(N2CCNCC2)c(F)c1 (stereo not given)	3%	-0.34
CC(C)n1ccc(C(=O)N[C@H](C(=O)OCc2ccccc2)[C@H](C)O)n1	-8%	1.05
O=C(c1ccc2[nH]cnc2c1)N1CCN(Cc2ccc(S(=O)(=O)F)cc2)CC1	-11%	1.6
CN(C)[C@@H]1CCC[C@H]1NC(=O)c1ccc(C(C)(F)F)nc1	7%	-1.36
CCCN(CCO)S(=O)(=O)c1ccc(C#N)c(C(F)(F)F)c1	-14%	2.6
COc1cccc([C@H]2CN(C(=O)c3cccc(C)c3)[C@@H]3C4CCN(CC4)[C@H]23)c1	-1%	0.19
O=C(c1cn2ccnc(-c3ccccc3)c2n1)N1CCC2(CC1)OCCO2	34%	-3.82
O[C@@]12C[C@@H]([C@H]3CO[C@@H]1O3)n1nnnc1N2	9%	-1.07
O=C(O)[C@@H]1CC2(CCN(c3ccc(Cl)cn3)CC2)CN1	0%	0.05
O=C(c1ccc(Cl)c(S(=O)(=O)N2CCCCCC2)c1)N1CCC2(CC1)OCCO2	2%	-0.22
COc1ccc(-n2nc(C)c3sc(N(C)CC(=O)N4CCC5(CC4)OCCO5)nc32)cc1	-15%	2.09
Cc1[nH]c2c(C)ccc(C)c2c1CC(=O)N1CCN(C[C@@H](O)CN(C)C)CC1	-5%	0.78
CC(=O)C1(c2ccccc2)CCN(C(=O)c2cn(Cc3ccccc3F)nn2)CC1	-5%	0.8
Cc1noc([C@H](C)N2CCCN(C(=O)COc3ccccc3)CC2)n1	-8%	1.52
Cc1cnn(C[C@H](C)NCc2nc(C)c(C)o2)c1	-3%	0.3
Cc1cc(CC(C)NC2CCCC2(C)C)n[nH]1 (stereo not given)	-6%	0.59
O=C(NCc1cccnc1)NC1CCCCC1	-3%	0.35
COC(C)(C)C(=O)N1C[C@H](c2cc(F)cc(F)c2)[C@@H]2[C@H]1C1CCN2CC1	-4%	0.8
CO[C@H]1CN(C)C[C@@H]1NS(=O)(=O)c1cc2oc(=O)[nH]c2cc1C	0%	0
CN1C(=O)C2(CCN(Cc3cc4ccccc4o3)CC2)c2ccccc21	-13%	2.36

SMILES	% Inhibition	Z score
Brc1cc(CN2CC[C@]3(CCOC3)C2)c2ncccc2c1	-6%	0.68
COc1ccccc1C(O)CNC(C)C1CC1 (stereo not given)	-1%	0.11
O=C(Cc1ccccn1)N1CCN(Cc2cc(Cl)ccc2F)CC1	-9%	1.12
COc1ccc(N2C(=O)NC(=O)[C@H](C(c3ccc(F)cc3)c3ccc(F)cc3)C2=O)cc1	22%	-2.77
Cc1ccc(N(C)C(=O)Oc2cc3ccccc3cc2OC(=O)N(C)c2ccc(C)cc2)cc1	-4%	0.66
CC(C)=CCC[C@H](C)NCCc1ccc(O)cc1	9%	-1.3
CC(=O)N1CCC[C@H](N(CCN(C)C(=O)Cc2ccc(F)cc2)C2CCOCC2)C1	1%	-0.09
COc1cccc([C@H]2CN(C(=O)CN3CCOCC3)[C@@H]3C4CCN(CC4)[C@H]23)c1	-2%	0.29
COc1ncc(Cn2cnc(C#N)n2)c(C)n1	-1%	0.26
CC(C)NC(=O)CN1[C@@H]2CC[C@H]1[C@@H](NC(=O)c1cccc(-n3ccnn3)c1)C2	11%	-1.46
O=S(=O)(c1cccnc1)N1C2CCC1c1ccccc12	-10%	1.28
O=C(CCc1nc(C2=CCN(Cc3ccc(Cl)cc3)CC2)no1)NCc1ccc2c(c1)OCO2	-11%	1.56
C[C@@H](CN1CCCCC1)NC(=O)c1ccc(N)cn1	5%	-0.67
COc1cc(S(=O)(=O)F)ccc1OCc1noc(C2CC2)n1	2%	-0.29
CN1CCN(C(=O)COc2ccc(S(=O)(=O)N3CCCC3)cc2)CC1	-6%	0.72
O=C(NC1CCCCC1)Oc1c(Cl)cc2oc(=O)sc2c1Cl	-7%	0.92
O=C(Nc1cc(F)cc2c1OCOC2)N1CCN(CCO[C@@H](c2ccccc2)c2ccc(F)c(F)c2)CC1	2%	-0.48
CC(C)=CCC[C@H](C)N[C@H]1CC[C@H](O)CC1	9%	-1.18
CN1CCC2(CCCN2C(=O)Cc2ccc(S(=O)(=O)F)cc2)CC1	-1%	0.11
O=C(Cc1ccc(F)cc1)NCC#CCN1CCCC1	-7%	1.3
c1cc(-c2ccc(-c3ccc4c(c3)CNCC4)cc2)[nH]n1	-4%	0.81
CN1C[C@H]2CCC(Nc3cc(C4CC4)ccn3)[C@H]2C1 (stereo not given in full)	-3%	0.69

SMILES	% Inhibition	Z score
CCCc1nc(C)cc(N2C[C@H]3c4cccc(OC)c4OC[C@@]3(C(=O)O)C2)n1	0%	0.05
CCCN1CCN(C(=O)Cc2ccc3c(c2)OCO3)[C@H]2CS(=O)(=O)C[C@H]21	1%	-0.14
Cc1ccc2c(n1)N(C)[C@H](CO)CCN(C1CCCCC1)C2	-9%	1.74
OC[C@H]1CC[C@@H](NC2CCCC(C(F)(F)F)C2)CC1 (stereo not given in full)	-7%	1.08
C[C@@H](Cc1c(Cl)cccc1Cl)NC(=O)NCCO	-1%	0.16
CCOC1CC(NC2CCC(O)(C(F)(F)F)CC2)C12CCC2 (stereo not given)	-9%	1.16
COc1ccc([C@H]2C[C@H]3CC[C@@H](C2)N3Cc2cccc(O)c2)cc1	10%	-1.4
Cn1c(=O)oc2cc(-c3csc(-c4ccccc4)n3)ccc21	-11%	1.69
CCOc1cc(N2CCN3CCOC[C@]3(CO)C2)nc(C)n1	-1%	0.13
COc1ccc(NC(=O)C2CC3CCC2N3C(=O)C2CCC(F)(F)CC2)cn1 (stereo not given)	0%	-0.04
CC1CC(NC(=O)C2(N(C)C)CCC(c3ccccc3)CC2)CCO1 (stereo not given)	-3%	0.57
CCn1nccc1CNc1ccc2oc(=O)[nH]c2c1	-10%	1.02
CCc1nsc(N[C@@H]2CNC(=O)C2)n1	-7%	0.96
C=C(C)COc1ccccc1NC(=O)c1[nH]cnc1C	-19%	1.7
CC(NCCc1ccc2[nH]ccc2c1)C1(C)CCCO1 (stereo not given)	3%	-0.27
O=C(c1ncccc1O)N1C[C@@H]2CC[C@H]1CN(C1CCOCC1)C2	-11%	1.02
Clc1ccc2ncc(CN3CCC[C@@]4(CCOC4)C3)n2c1	-9%	1.14
O=C(c1ccc(C(F)(F)F)cc1)[C@H]1CCCN(CCN2CCOCC2)C1	-1%	0.12
Cc1ccc([C@@H]2COCCN2Cc2ccccc2N(C)C2CCN(C)CC2)o1	-6%	0.81
O=C(Cn1cnc2ccccc21)N[C@H]1COC[C@@H]1N1CCOCC1	1%	-0.11
CCc1noc(C(C)NC(C)Cc2ccc(Cl)cc2)n1 (stereo not given)	-10%	1.48
C[C@@H]1CN(Cc2c(F)cccc2Cl)CCN1	2%	-0.27

SMILES	% Inhibition	Z score
CC1CC1C(=O)N[C@H]1CC[C@@H](CS(=O)(=O)F)C1 (stereo not given in full)	-11%	1.23
CCN(C)CC1CCN(C(C)C(=O)c2c(C)[nH]c3ccccc23)C1 (stereo not given)	7%	-0.97
COc1cccc(-n2nc3c(c2N)N2CCC3CC2)c1	-11%	1.32
COC[C@H](CCO)Nc1ccc(C#N)c(Br)c1F	-1%	0.13
CCCC1CCC(CN[C@@H](C)Cn2cccn2)CC1 (stereo not given in full)	-13%	1.32
CCN(c1ccc(C#N)c(Cl)c1)S(=O)(=O)c1ccnn1CC	-12%	1.13
CC[C@H]1CN(C(N)=O)CCN1CC(F)F	-14%	1.34
O=C1CO[C@H]2CN(Cc3ncc[nH]3)C[C@H]2N1Cc1ccccn1	1%	-0.12
CCCC(=O)N1CCC(c2c[nH]cn2)CC1	2%	-0.25
Cc1nc[nH]c1CN1CCCC12CCN(c1ncccn1)CC2	2%	-0.17
Nc1ccnc2c1CN(CC1CC3(CCC3)C1)CC2	8%	-0.8
Cc1nonc1CC(=O)N1CCN(C)C[C@@H]1CC(C)C	-11%	1.84
CC(=O)c1cccc(C(=O)N[C@H]2CCC[C@@H]2N(C)C)c1	-12%	1.52
Cc1noc(C)c1CN1CC2CCN(c3ccccc3)C2C1 (stereo not given)	-14%	1.18
COCC(C)NC1CCCCC1OC (stereo not given)	-4%	0.75
O=C(Cc1n[nH]c(=O)c2ccccc12)N1CCC2(CC1)OCCO2	-11%	1.85
Cc1oc(-c2ccccc2)nc1CN1C(=O)CN=C(c2ccccc2)c2ccccc21	-3%	0.47
COc1ccccc1[C@H]1CN(c2ncccc2C#N)[C@@H]2C3CCN(CC3)[C@H]12	-3%	0.47
O=C(N[C@H]1COC[C@@H]1N1CCOCC1)c1ccco1	-8%	1.28
